# Among all 91,000 compounds or so, about 290 (0.32%) were called active. Inconclusive results, whose numbers are uncertain, are shown with a selection of clear calls. Calls come from the whole dose curve; as a rule, active = well fitted inhibition curve with a large enough effect; inconclusive = small, poorly fitted or top-dose-only effect; inactive = no such curve, though single readings can be large or run the other way. Potencies beside an inconclusive call are fits to weak or partial responses and may not hold up.
# Molecular target: Single-stranded DNA cytosine deaminase (Homo sapiens) (UniProt Q9GZX7)
# UniProt Q9GZX7, sequence (Q9GZX7 whole entry, looked up): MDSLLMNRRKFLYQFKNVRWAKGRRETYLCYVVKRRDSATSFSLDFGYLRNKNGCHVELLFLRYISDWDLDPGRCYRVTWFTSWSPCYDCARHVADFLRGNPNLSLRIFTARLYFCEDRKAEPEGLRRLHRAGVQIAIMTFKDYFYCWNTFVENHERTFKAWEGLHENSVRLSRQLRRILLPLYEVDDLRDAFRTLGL
# Test: Primary qHTS assay for inhibitors of Activation Induced Cytidine Deaminase (AID): AID signal; note: nearly all actives have a fitted effect of over 25% in size
# Conditions: AID deamination FRET fluorescence, UDG-coupled, 4 h; activity change, negative = inhibition: at 115 µM (top of the series)
# % is set by controls: 0 for no effect and ±100 for the full control effect; potency is the fitted concentration of half-maximal effect; tags give direction and shape of the fitted curve.
Structure (SMILES),Potency,"activity change, negative = inhibition"
Cc1c(Cl)ccc2sc(N3CCN(C(=O)CS(=O)(=O)c4ccccc4)CC3)nc12,"inconclusive: 17.8 µM [inhibitor, full curve, poor fit]",
CCOC(=O)c1ccc2[nH]c(CSCC(=O)Nc3cc(C)cc(C)c3)cc(=O)c2c1,,inactive: -3.36%
Cc1ccc(C)c(C(=O)Nc2ccc(Cl)c(C(F)(F)F)c2)c1,,inactive: -10.8%
C=CCN(CCC(=O)NC(N)=O)Cc1ccccc1,,inactive: 3.36%
Cc1nnc(N2CCCC(C(=O)NCCc3ccccc3)C2)c2nn(-c3ccccc3)c(C)c12 (stereo unspecified),"inconclusive: 50.1 µM [inhibitor, partial curve, poor fit]",
CCc1cccc(NC(=O)C2CCN(S(=O)(=O)c3cccc(-c4noc(C)n4)c3)CC2)c1,,inactive: -22.3%
Cc1nn(C)c2c1c(C(F)(F)F)cc(=O)n2CC(=O)N1CCC(C)CC1,"inconclusive: 79.4 µM [inhibitor, single point]",
CC1CCN(S(=O)(=O)c2cc(C(=O)N3CCN(c4ccccc4F)CC3)n(C)c2)CC1,"inconclusive: 89.1 µM [inhibitor, single point]",
COc1ccc(NC(=O)c2ccco2)cc1NC(=O)COc1ccccc1Cl,,inactive: -7.66%
COc1ccc(C(=O)c2cn(CC(=O)Nc3ccc4c(c3)OCO4)c3ccc(OC)cc3c2=O)cc1,"inconclusive: 79.4 µM [inhibitor, partial curve, poor fit]",
O=C(NCCc1ccc(Cl)cc1)c1cccn1-c1nnc(N2CCCC2)s1,"inconclusive: 79.4 µM [inhibitor, partial curve, poor fit]",
CCn1cc(C(=O)NC(C)c2ccccc2)c(=O)c2cc(S(=O)(=O)N3CCc4ccccc4C3)ccc21 (stereo unspecified),"inconclusive: 63.1 µM [inhibitor, partial curve, poor fit]",
COc1ccc(OC(C)C(=O)NCc2nc(-c3ccc(Cl)cc3)no2)cc1 (stereo unspecified),"inconclusive: 39.8 µM [inhibitor, single point]",
CC(Sc1n[nH]c(=O)n1C1CC1)C(=O)c1ccc(Br)cc1 (stereo unspecified),,inactive: 1.81%
CCOC(=O)c1sc(NC(=O)Nc2cccc(Cl)c2)nc1C,,inactive: -3.29%
Cc1cccc(NC(=O)c2c(NC(=O)c3ccco3)sc3c2CCC(C(C)(C)C)C3)c1 (stereo unspecified),"inconclusive: 112 µM [inhibitor, partial curve, poor fit]",
O=C(COC(=O)c1nn(-c2ccccc2)c(=O)c2ccccc12)NC12CC3CC(CC(C3)C1)C2,"inconclusive: 20 µM [inhibitor, partial curve, poor fit]",
N#Cc1ccc(C(=O)C(C#N)C(=O)Nc2cccc3ccccc23)cc1 (stereo unspecified),,inactive: 20.7%
CCc1c(C)sc(NC(=O)C(F)(F)F)c1C#N,,inactive: 22.5%
Cc1cc(C)c(/C=C/c2onc(C)c2S(=O)(=O)N2CCC(C(=O)NCC(C)c3ccccc3)CC2)c(C)c1 (stereo unspecified),"inconclusive: 8.91 µM [inhibitor, full curve, poor fit]",
O=c1[nH]cccc1NS(=O)(=O)c1ccc(Cl)c(C(F)(F)F)c1,,inactive: -15.8%

Structure (SMILES),Potency,"activity change, negative = inhibition"
COC(=O)c1c(NC(=O)C(C)Oc2ccc(Cl)cc2Cl)sc2c1CCCC2 (stereo unspecified),"inconclusive: 39.8 µM [inhibitor, single point]",
N#CC(Cc1ccccc1CO)c1nc2ccccc2s1 (stereo unspecified),,inactive: 42.6%
Cc1nn(C)c2c1c(-c1ccccc1)cc(=O)n2C(C)C(=O)NCCc1ccc(Cl)cc1 (stereo unspecified),"inconclusive: 39.8 µM [inhibitor, full curve, poor fit]",
CCn1cc(C(=O)NCCCN2CCC(C)CC2)c(=O)c2cc(S(=O)(=O)N(C)C3CCCCC3)ccc21,"inconclusive: 79.4 µM [inhibitor, partial curve, poor fit]",
Cc1oc(-c2nc(C#N)c(NCCN(C)C)o2)cc1S(=O)(=O)N(C)c1ccccc1,,inactive: -5.57%
O=C(CCn1c(=O)oc2cc(S(=O)(=O)N3CCCC3)ccc21)Nc1ccc(OC(F)(F)F)cc1,,inactive: 1.6%
Cc1cccc(Nc2c3c(nc4ccccc24)CCC3)c1,"inconclusive: 70.8 µM [inhibitor, partial curve, poor fit]",
O=C1N(Cc2ccc(Cl)cc2)CCCN1c1ccc(C(=O)N2CCc3ccccc32)cc1,"inconclusive: 17.8 µM [inhibitor, full curve]",
Cc1cccc(CNC(=O)Cc2csc3ccccc23)c1,"inconclusive: 3.55 µM [inhibitor, full curve, poor fit]",
CCOc1ccc(NC(=O)CN(c2ccccc2OCC)S(=O)(=O)c2ccccc2)cc1,"inconclusive: 39.8 µM [inhibitor, single point]",
Cc1c(C)n(Cc2ccc(F)cc2)c2ccc(C(=O)N3CCN(c4ccc(Cl)cc4)CC3)cc12,"inconclusive: 17.8 µM [inhibitor, partial curve, poor fit]",
COc1ccc(/C=C/C(=O)Nc2ccc3nc(N4CCC(C)CC4)cc(C)c3c2)cc1OC,"inconclusive: 39.8 µM [inhibitor, partial curve, poor fit]",
O=C(c1ccc(Cl)cc1)C(CN1CCCCCC1)c1ccccc1 (stereo unspecified),"inconclusive: 56.2 µM [inhibitor, partial curve, poor fit]",
COc1ccc(Cl)cc1NC(=O)CCCn1nc(-n2cccc2)c2c(C)cc(C)nc21,"inconclusive: 50.1 µM [inhibitor, partial curve]",
Cc1nn(-c2ccccc2)c(-n2cccc2)c1C(=O)NCc1ccccc1Cl,"inconclusive: 56.2 µM [inhibitor, partial curve, poor fit]",
CC(=O)Nc1cc(C(=O)NCc2ccc(F)cc2)ccc1Sc1ccc(C)cc1,"inconclusive: 8.91 µM [inhibitor, full curve]",
Cc1cccc(-c2nc3c(cnn3-c3ccccc3)c(=O)n2-c2cccc(Cl)c2)c1,"inconclusive: 22.4 µM [inhibitor, partial curve, poor fit]",
CC(C)(C)OC(=O)N1CCC(c2c(C(=O)Nc3ccc4c(c3)OCCO4)cnn2-c2ccc(F)cc2)CC1,"inconclusive: 35.5 µM [inhibitor, full curve, poor fit]",
Cc1ccc(C(CC(=O)NCC2(c3ccccc3)CCCC2)c2ccccc2)c(O)c1 (stereo unspecified),"inconclusive: 25.1 µM [inhibitor, full curve, poor fit]",
CCOc1ccc(Nc2oc(-c3ccc(COc4ccccc4C)o3)nc2C#N)cc1,"inconclusive: 25.1 µM [inhibitor, full curve, poor fit]",
CCN(c1ccccc1)S(=O)(=O)c1ccc(F)c(C(=O)Nc2ccc(C)cc2)c1,"inconclusive: 20 µM [inhibitor, full curve]",

Structure (SMILES),Potency,"activity change, negative = inhibition"
Cc1ccc2nc(-c3ccc(N/C(N)=N/c4nc(C)cc(C)n4)cc3)sc2c1,"inconclusive: 50.1 µM [inhibitor, partial curve, poor fit]",
CC(=O)c1cccc(OC(C)C(=O)C(C#N)C(=O)NC2CC2)c1 (stereo unspecified),,inactive: 3.95%
Cc1ccc2nc(NS(=O)(=O)c3ccc(Cl)cc3)c(Nc3ccc(C(=O)O)cc3)nc2c1,"inconclusive: 50.1 µM [inhibitor, partial curve, poor fit]",
C(#Cc1ccc(C#CC[N+]2(Cc3ccccc3)CCCCC2)cc1)C[N+]1(Cc2ccccc2)CCCCC1,"inconclusive: 44.7 µM [inhibitor, full curve, poor fit]",
COC(=O)c1c(C)sc2c1OC(N)=C(C#N)C21C(=O)N(Cc2cccc(F)c2)c2ccccc21 (stereo unspecified),,inactive: 35.8%
c1ccc(-c2ccc(Oc3nc(-c4ccccc4)cs3)cc2)cc1,,inactive: 10.9%
CCOC(=O)c1oc2ccc(S(=O)(=O)n3nc(-c4cc(OC)cc(OC)c4)cc3N)cc2c1C,"inconclusive: 44.7 µM [inhibitor, partial curve, poor fit]",
O=C(Cc1ccccc1F)N1CCC(c2nc3c(nnn3Cc3ccc(F)cc3)c(=O)[nH]2)CC1,"inconclusive: 56.2 µM [inhibitor, partial curve, poor fit]",
CSc1ccc(CC2C(=O)Nc3ccccc32)cc1 (stereo unspecified),,inactive: -9.32%
CCCCOc1ccc(NC(=O)Cc2ccccc2)c2cccnc12,,inactive: -4.32%
Cc1c(C(=O)N(Cc2ccc(Cl)cc2)CC2CCCO2)oc2ccc(F)cc12 (stereo unspecified),"inconclusive: 50.1 µM [inhibitor, partial curve, poor fit]",
CCCn1nc(C(=O)OCC(=O)Nc2ccc3c(c2)OC(F)(F)O3)c2ccccc2c1=O,,inactive: -0.0728%
O=S(=O)(c1ccc2[nH]c3c(c2c1)CCCCC3)N1CCN(c2cccc(Cl)c2)CC1,"inconclusive: 39.8 µM [inhibitor, single point]",
COc1nnc(-c2ccc(N3CCOCC3)c(NC(=O)COc3cccc(C)c3)c2)c2ccccc12,"inconclusive: 44.7 µM [inhibitor, partial curve]",
CCc1cccc(C)c1NC(=O)CN1C(=O)C2(SCC(=O)N2c2cc(C)cc(C)c2)c2ccccc21 (stereo unspecified),"inconclusive: 22.4 µM [inhibitor, full curve]",
CC1CCCCN1S(=O)(=O)c1cc2c3c(c1)CC(=O)N3CCC2 (stereo unspecified),"inconclusive: 17.8 µM [inhibitor, full curve, poor fit]",
Cc1ccc(Nc2nc(Nc3ccc(C)c(C)c3)nc(N3CCOCC3)n2)cc1C,"inconclusive: 20 µM [inhibitor, partial curve, poor fit]",
Cc1cc(C)cc(OCC(=O)N(Cc2ccc(Cl)cc2)CC2CCCO2)c1 (stereo unspecified),"inconclusive: 89.1 µM [inhibitor, partial curve, poor fit]",
CCC1CCCCN1C(=O)CSc1nc2c([nH]c3ccccc32)c(=O)n1-c1cccc(OC)c1 (stereo unspecified),"inconclusive: 17.8 µM [inhibitor, full curve, poor fit]",

# Source: PubChem BioAssay AID1347428 (National Center for Advancing Translational Sciences (NCATS), 2020)
